No constants are given. Whether binding was seen depends on the method and setting. For part of these data: Binding seen in cells or lysates may run through a third protein. Some entries that bind do so weakly or less than the wild type. Tags and fused reporters may be left off the sequences shown.
T1: B3 transcription factor from the ARF5 (Auxin Response Factor 5), BiFC fusion (UniProt P93024)
T1 sequence: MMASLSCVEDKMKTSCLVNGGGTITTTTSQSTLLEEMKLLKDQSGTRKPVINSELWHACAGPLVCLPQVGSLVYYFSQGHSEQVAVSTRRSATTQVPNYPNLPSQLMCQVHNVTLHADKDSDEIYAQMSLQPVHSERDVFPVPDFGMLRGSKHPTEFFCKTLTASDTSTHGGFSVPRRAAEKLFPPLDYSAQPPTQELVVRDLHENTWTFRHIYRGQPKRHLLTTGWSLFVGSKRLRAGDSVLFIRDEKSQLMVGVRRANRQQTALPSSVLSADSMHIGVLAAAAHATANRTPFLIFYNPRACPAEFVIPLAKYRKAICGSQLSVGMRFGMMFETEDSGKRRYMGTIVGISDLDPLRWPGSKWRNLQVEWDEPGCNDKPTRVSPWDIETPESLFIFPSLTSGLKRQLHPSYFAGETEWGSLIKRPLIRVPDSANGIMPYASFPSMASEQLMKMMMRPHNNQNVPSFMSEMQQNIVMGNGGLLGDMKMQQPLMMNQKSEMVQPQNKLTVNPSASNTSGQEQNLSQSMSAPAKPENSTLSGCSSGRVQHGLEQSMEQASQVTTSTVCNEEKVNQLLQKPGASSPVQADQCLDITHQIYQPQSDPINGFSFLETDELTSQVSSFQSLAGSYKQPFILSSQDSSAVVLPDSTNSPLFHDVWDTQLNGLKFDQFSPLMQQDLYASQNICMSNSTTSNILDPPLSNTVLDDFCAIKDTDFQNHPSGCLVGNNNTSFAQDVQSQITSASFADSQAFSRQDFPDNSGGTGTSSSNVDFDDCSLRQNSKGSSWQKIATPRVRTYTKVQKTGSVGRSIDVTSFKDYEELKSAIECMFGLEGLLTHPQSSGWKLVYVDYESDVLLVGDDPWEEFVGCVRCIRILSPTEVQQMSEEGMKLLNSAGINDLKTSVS

T2: C-TERMINAL DOMAIN PHOSPHATASE-LIKE1 (CPL1), BiFC fusion (Arabidopsis thaliana) (UniProt Q5YDB6)
T2 sequence: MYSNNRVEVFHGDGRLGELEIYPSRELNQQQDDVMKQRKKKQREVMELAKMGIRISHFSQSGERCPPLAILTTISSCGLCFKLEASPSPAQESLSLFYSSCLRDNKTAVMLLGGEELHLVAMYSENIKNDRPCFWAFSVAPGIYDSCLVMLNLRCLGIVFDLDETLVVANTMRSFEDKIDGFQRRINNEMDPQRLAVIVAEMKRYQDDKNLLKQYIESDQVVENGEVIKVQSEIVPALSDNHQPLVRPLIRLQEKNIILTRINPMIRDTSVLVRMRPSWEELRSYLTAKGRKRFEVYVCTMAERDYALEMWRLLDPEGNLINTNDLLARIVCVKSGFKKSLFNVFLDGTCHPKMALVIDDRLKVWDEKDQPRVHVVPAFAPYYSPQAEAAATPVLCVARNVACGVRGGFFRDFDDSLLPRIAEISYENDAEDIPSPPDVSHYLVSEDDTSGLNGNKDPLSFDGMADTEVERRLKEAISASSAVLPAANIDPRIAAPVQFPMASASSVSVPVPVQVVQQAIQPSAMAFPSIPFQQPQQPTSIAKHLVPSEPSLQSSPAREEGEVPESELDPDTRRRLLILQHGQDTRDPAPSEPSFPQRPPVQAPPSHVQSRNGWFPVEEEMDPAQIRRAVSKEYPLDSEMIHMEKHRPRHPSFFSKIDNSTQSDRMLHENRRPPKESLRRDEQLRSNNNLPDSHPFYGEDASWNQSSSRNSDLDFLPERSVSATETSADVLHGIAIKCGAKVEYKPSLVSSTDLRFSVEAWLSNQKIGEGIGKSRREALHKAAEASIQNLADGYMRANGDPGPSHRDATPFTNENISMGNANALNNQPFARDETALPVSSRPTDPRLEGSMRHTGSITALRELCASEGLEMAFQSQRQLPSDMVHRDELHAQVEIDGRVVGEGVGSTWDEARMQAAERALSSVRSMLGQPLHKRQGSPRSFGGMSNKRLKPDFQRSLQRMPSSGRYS

T3: C-TERMINAL DOMAIN PHOSPHATASE-LIKE1 (CPL1), yeast two-hybrid fusion (Arabidopsis thaliana) (UniProt Q5YDB6)
T3 sequence: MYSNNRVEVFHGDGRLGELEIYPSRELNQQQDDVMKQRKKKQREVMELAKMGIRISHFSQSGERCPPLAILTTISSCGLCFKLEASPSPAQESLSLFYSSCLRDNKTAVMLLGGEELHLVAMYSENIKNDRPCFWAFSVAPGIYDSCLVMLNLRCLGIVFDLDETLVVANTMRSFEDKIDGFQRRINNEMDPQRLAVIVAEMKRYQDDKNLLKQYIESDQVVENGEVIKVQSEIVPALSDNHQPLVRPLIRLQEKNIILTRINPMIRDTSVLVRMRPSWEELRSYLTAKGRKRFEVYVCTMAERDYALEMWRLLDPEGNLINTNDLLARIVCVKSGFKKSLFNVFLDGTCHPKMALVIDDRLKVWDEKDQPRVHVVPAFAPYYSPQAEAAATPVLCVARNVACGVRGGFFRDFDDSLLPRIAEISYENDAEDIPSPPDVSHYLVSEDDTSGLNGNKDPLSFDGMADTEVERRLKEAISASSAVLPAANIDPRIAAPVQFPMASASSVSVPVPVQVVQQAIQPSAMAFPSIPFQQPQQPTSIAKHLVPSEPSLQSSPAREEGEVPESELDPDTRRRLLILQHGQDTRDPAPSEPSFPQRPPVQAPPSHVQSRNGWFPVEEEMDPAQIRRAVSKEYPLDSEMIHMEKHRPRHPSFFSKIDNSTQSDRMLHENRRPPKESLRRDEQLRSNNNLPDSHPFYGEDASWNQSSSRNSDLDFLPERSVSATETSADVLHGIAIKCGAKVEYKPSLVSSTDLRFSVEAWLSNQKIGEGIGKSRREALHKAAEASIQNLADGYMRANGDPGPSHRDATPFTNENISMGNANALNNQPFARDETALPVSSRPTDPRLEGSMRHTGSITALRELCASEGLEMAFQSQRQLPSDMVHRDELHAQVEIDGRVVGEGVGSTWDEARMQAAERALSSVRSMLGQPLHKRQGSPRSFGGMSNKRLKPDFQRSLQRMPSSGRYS


How the values were obtained:
[1] = biological target: T1, B3 transcription factor from the ARF5 (Auxin Response Factor 5), BiFC fusion; assay: split reporter; BiFC in Nicotiana benthamiana leaf cells agroinfiltrated with YFPct and YFPnt fusions; fluorescence visualized 72 h after inoculation; reciprocal orientations also performed
[2] = biological target: T2, C-TERMINAL DOMAIN PHOSPHATASE-LIKE1 (CPL1), BiFC fusion (Arabidopsis thaliana); assay: as above
[3] = biological target: T3, C-TERMINAL DOMAIN PHOSPHATASE-LIKE1 (CPL1), yeast two-hybrid fusion (Arabidopsis thaliana); assay: two-hybrid; yeast strain EGY48 cotransformed with pGilda and pB42AD constructs; induction with galactose and raffinose; X-gal on plates and ONPG beta-galactosidase liquid assays

binding [1] | binding [2] | binding [3] | Binder
no binding | binds | – | PEPPER (PEP), BiFC fusion (protein, UniProt Q9SZH4 1-495) MAAVADSVENNGSINLPENENLIPAGFSAAALLDENSGAFPELNQPDSLAAAETTFPDTNDSAEERWPGWPGDCVFRMIVPVTKVGAIIGRKGDFIKKMCEETRARIKVLDGPVNTPDRIVLISGKEEPEAYMSPAMDAVLRVFRRVSGLPDNDDDDVQNAGSVFSSVRLLVASTQAINLIGKQGSLIKSIVENSGASVRILSEEETPFYAAQDERIVDLQGEALKILKALEAIVGHLRRFLVDHTVVPLFEKQYLARVSQTRQEEPLAESKSSLHTISSNLMEPDFSLLARREPLFLERDSRVDSRVQPSGVSIYSQDPVLSARHSPGLARVSSAFVTQVSQTMQIPFSYAEDIIGVEGANIAYIRRRSGATITIKESPHPDQITVEIKGTTSQVQTAEQLIQEFIINHKEPVSVSGGYARIDSGYVPAYPPQLSNRQEPLPSTYMGTEPVQYRPTAYSQLGGPSTYTPTLTGQTYGSEYRPASDVGGYSSYNL
– | – | binds | PEPPER (PEP), yeast two-hybrid fusion (protein, UniProt Q9SZH4 1-495) MAAVADSVENNGSINLPENENLIPAGFSAAALLDENSGAFPELNQPDSLAAAETTFPDTNDSAEERWPGWPGDCVFRMIVPVTKVGAIIGRKGDFIKKMCEETRARIKVLDGPVNTPDRIVLISGKEEPEAYMSPAMDAVLRVFRRVSGLPDNDDDDVQNAGSVFSSVRLLVASTQAINLIGKQGSLIKSIVENSGASVRILSEEETPFYAAQDERIVDLQGEALKILKALEAIVGHLRRFLVDHTVVPLFEKQYLARVSQTRQEEPLAESKSSLHTISSNLMEPDFSLLARREPLFLERDSRVDSRVQPSGVSIYSQDPVLSARHSPGLARVSSAFVTQVSQTMQIPFSYAEDIIGVEGANIAYIRRRSGATITIKESPHPDQITVEIKGTTSQVQTAEQLIQEFIINHKEPVSVSGGYARIDSGYVPAYPPQLSNRQEPLPSTYMGTEPVQYRPTAYSQLGGPSTYTPTLTGQTYGSEYRPASDVGGYSSYNL
no binding | binds | – | HUA1, BiFC fusion (protein, UniProt Q941Q3 1-524) MAHRQLYSYALQPSYAAAASTVSPAPPPPQQPLPPKTGLSSLYGSSADHYFPDTTYRFLARDGSEALSNYSGTLASSSSMYHHLPNTTASHLAYPQLLQHQEVAWPPGVEVPGAASAVEPLPPGVKRTSEALYYPTLLGAHNTIGQTEAWYTTDYFTKRPKLESTSHLPIYPQRAGEKDCTHYMQTRTCKFGESCRFDHPIWVPEGGIPDWKEAPVVPNEEYPERPGEPDCPYYIKTQRCKYGSKCKFNHPREEAAVSVETQDSLPERPSEPMCTFYMKTGKCKFGLSCKFHHPKDIQLPSSSQDIGSSVGLTSEPDATNNPHVTFTPALYHNSKGLPVRSGEVDCPFYLKTGSCKYGATCRYNHPERTAFIPQAAGVNYSLVSSNTANLNLGLVTPATSFYQTLTQPTLGVISATYPQRPGQSECDYYMKTGECKFGERCKFHHPADRLSAMTKQAPQQPNVKLSLAGYPRREGALNCPYYMKTGTCKYGATCKFDHPPPGEVMAKTTSEADAAGATNTDTTQ
– | – | binds | HUA1, yeast two-hybrid fusion (protein, UniProt Q941Q3 1-524) MAHRQLYSYALQPSYAAAASTVSPAPPPPQQPLPPKTGLSSLYGSSADHYFPDTTYRFLARDGSEALSNYSGTLASSSSMYHHLPNTTASHLAYPQLLQHQEVAWPPGVEVPGAASAVEPLPPGVKRTSEALYYPTLLGAHNTIGQTEAWYTTDYFTKRPKLESTSHLPIYPQRAGEKDCTHYMQTRTCKFGESCRFDHPIWVPEGGIPDWKEAPVVPNEEYPERPGEPDCPYYIKTQRCKYGSKCKFNHPREEAAVSVETQDSLPERPSEPMCTFYMKTGKCKFGLSCKFHHPKDIQLPSSSQDIGSSVGLTSEPDATNNPHVTFTPALYHNSKGLPVRSGEVDCPFYLKTGSCKYGATCRYNHPERTAFIPQAAGVNYSLVSSNTANLNLGLVTPATSFYQTLTQPTLGVISATYPQRPGQSECDYYMKTGECKFGERCKFHHPADRLSAMTKQAPQQPNVKLSLAGYPRREGALNCPYYMKTGTCKYGATCKFDHPPPGEVMAKTTSEADAAGATNTDTTQ
no binding | binds | – | REGULATOR OF GENE EXPRESSION 3 (RCF3), BiFC fusion (protein, UniProt Q8W4B1 1-652) MERSRSKRNYHYDQDYDGDSMPRSKPRYNNNYHFGGGGGGNNRYRGGGGGGGGNGRPSKSHPETMATTTYRILCHDAKAGGVIGKSGTIIKSIRQHTGAWINVHELVPGDAERIIEISDNRRRDPDGRMPSFSPAQEALFSVHDRILESEAQFGYGGPPPEEEEDYGGVRPGGGRVVTRLVVSRMHVGCLLGKGGKIIEQMRIETKTHIRILPRESNLPRCVSLSEEIVQIVGELNAVKNALAIVSSRLRESQHRDRSNFQGRSHSPERSFAAAGDDYMPQLRRQSSDRFPRGNFRNNNFSSRQSNYAEEAPAVPVGENVYSEELVFQILCPADKIVRVVGESQGIIDLLQNEIGVDVRVSDPVAGSDEQIITISSEEAPDDPFFPAQEALLHIQTQIIDLIPDKDNLITTRLLVPSRDSICLEGKAGSVSEISRLTGTSVQILAREEIPRCASINDVVIQITGEIRAAREALVELTLLLRSHMFKELSQKETPPASTSTTGPLEGVAGVMEVASSNNTIQSREGPTSSNLNLQQVSTILPQFKEGFGSVAKAGESEHREEVPVTTSRMAVPLVTRSTLEVVLPEAVVPKLVTKSRNKLAQISEWSGASVTIVEDRPEETQNIIRISGTPEQAERAQSLLQGFILSIQEDGP
– | – | binds | REGULATOR OF GENE EXPRESSION 3 (RCF3), yeast two-hybrid fusion (protein, UniProt Q8W4B1 1-652) MERSRSKRNYHYDQDYDGDSMPRSKPRYNNNYHFGGGGGGNNRYRGGGGGGGGNGRPSKSHPETMATTTYRILCHDAKAGGVIGKSGTIIKSIRQHTGAWINVHELVPGDAERIIEISDNRRRDPDGRMPSFSPAQEALFSVHDRILESEAQFGYGGPPPEEEEDYGGVRPGGGRVVTRLVVSRMHVGCLLGKGGKIIEQMRIETKTHIRILPRESNLPRCVSLSEEIVQIVGELNAVKNALAIVSSRLRESQHRDRSNFQGRSHSPERSFAAAGDDYMPQLRRQSSDRFPRGNFRNNNFSSRQSNYAEEAPAVPVGENVYSEELVFQILCPADKIVRVVGESQGIIDLLQNEIGVDVRVSDPVAGSDEQIITISSEEAPDDPFFPAQEALLHIQTQIIDLIPDKDNLITTRLLVPSRDSICLEGKAGSVSEISRLTGTSVQILAREEIPRCASINDVVIQITGEIRAAREALVELTLLLRSHMFKELSQKETPPASTSTTGPLEGVAGVMEVASSNNTIQSREGPTSSNLNLQQVSTILPQFKEGFGSVAKAGESEHREEVPVTTSRMAVPLVTRSTLEVVLPEAVVPKLVTKSRNKLAQISEWSGASVTIVEDRPEETQNIIRISGTPEQAERAQSLLQGFILSIQEDGP
